The campaign covered roughly 350,000 compounds. About 260 (0.074%) were called active. The inconclusive results got no clear call from the source; some entries with a clear call stand among them for comparison. Calls follow the shape of the dose curve; as a rule, active = well fitted inhibition curve with a large enough effect; inconclusive = small, poorly fitted or top-dose-only effect; inactive = no such curve, though single readings can be large or run the other way. Potencies beside an inconclusive call are fits to weak or partial responses and may not hold up.
These compounds were tested against Ferritin light chain (Equus caballus) (UniProt P02791) (assay: qHTS Assay for Identification of Novel General Anesthetics). Conditions: apoferritin/1-aminoanthracene competitive binding, fluorescence; activity change, negative = displacement: at 77.5 µM (top of the series).
Chain of UniProt P02791 (P02791 whole entry, looked up): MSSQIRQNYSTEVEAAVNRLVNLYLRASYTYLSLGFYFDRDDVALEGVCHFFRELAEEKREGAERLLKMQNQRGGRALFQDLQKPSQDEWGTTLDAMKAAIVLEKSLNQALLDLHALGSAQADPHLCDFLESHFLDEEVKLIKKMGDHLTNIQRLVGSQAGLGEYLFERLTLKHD
How it was run: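 Horse-spleen apoferritin (10 uM) in 50% saturated 1-aminoanthracene in PBS was incubated 10 min at room temperature with compound. Fluorescence (ex 380, em 535 nm) was normalized to free and bound 1-AMA, with concentration-response fitted by a four-parameter Hill equation.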
% is scaled to controls: 0 for no effect and ±100 for the full control effect; potency is read from the fitted curve at half-maximal effect; tags tell the direction and shape of the fitted curve.
Also: nearly all actives have a fitted effect of over 20% in size.

Q: For `Cc1ccc(C(=O)Nc2ccccc2N2CCCCC2)cc1[N+](=O)[O-]`, which “activity change, negative = displacement” value is on record?
A: Its value is inactive: -13.1%.

Q: With `CC1=C(c2ccc(Cl)cc2)S(=O)(=O)N=C1N1CCC(C(=O)NCCc2ccco2)CC1` as the compound, how does the “activity change, negative = displacement” value read?
A: Its value is inactive: -5.03%.

Q: How did the Potency turn out when `CSc1ccccc1NC(=O)c1cc(C(C)C)on1` was run?
A: The Potency was inconclusive: 39.8 µM [inhibitor, partial curve].

Q: `CCOC(=O)c1ccc(NC(=O)C23CCC(C)(C(=O)O2)C3(C)C)cc1` (stereo unspecified) was tested. Which “activity change, negative = displacement” value did it give?
A: Its value is inactive: -18.7%.

Q: How did the Potency turn out when `COc1ccc(/C=C2\CCCC(C(=O)C(F)(F)F)=C2O)cc1` was run?
A: The Potency was inconclusive: 7.94 µM [inhibitor, full curve, poor fit].

Q: Which Potency does the source give for `NC1=NC[C@H](c2ccccc2)N1CCc1cc(C(F)(F)F)cc(C(F)(F)F)c1` here?
A: Its Potency is inconclusive: 7.94 µM [inhibitor, full curve].

Q: Which Potency does the source give for `O=C1C(Cl)=C(NC2CCc3ccccc32)C(=O)c2ncccc21` (stereo unspecified) here?
A: The Potency was inconclusive: 28.2 µM [inhibitor, single point].

Q: Which Potency does the source give for `CC[C@H](C)[C@H](NC(=O)c1ccc(Cl)cc1)C(=O)OCC(=O)c1ccc2c(c1)NC(=O)CO2` here?
A: Its Potency is inconclusive: 15.8 µM [inhibitor, partial curve].

Q: Which Potency does the source give for `CCN(CC)CCCN1C(=O)C(O)=C(C(=O)c2cc3cccc(OC)c3o2)C1c1ccncc1` (stereo unspecified) here?
A: Its Potency is inconclusive: 28.2 µM [inhibitor, single point].

Q: With `Cc1cccc(-n2ncc3c(NCCCN4CCCC4=O)ncnc32)c1` as the compound, how does the “activity change, negative = displacement” value read?
A: Its value is inactive: -8.66%.

Q: `Cc1c(C(=O)N2CCN(CCc3ccccc3)CC2)oc2ccccc12` was tested. Which Potency did it give?
A: Its Potency is inconclusive: 7.08 µM [inhibitor, partial curve].

Q: With `CCCCSC(=O)Nc1ccccc1` as the compound, how does the Potency read?
A: The Potency was active: 12.6 µM.

Q: Which Potency does the source give for `CCc1c(C)nc(SCc2nc(-c3ccccc3C)no2)[nH]c1=O` here?
A: Its Potency is inconclusive: 31.6 µM [inhibitor, single point].

Q: Which Potency does the source give for `CC1(C)CC(=O)N(c2cc(Cl)cc(Cl)c2)C(=O)C1` here?
A: The Potency was inconclusive: 28.2 µM [inhibitor, partial curve].

Q: `C/C(Sc1nnc(Cc2ccccc2)o1)=C(/O)c1ccccc1` was tested. Which Potency did it give?
A: The Potency was inconclusive: 44.7 µM [inhibitor, single point].

Q: How did the Potency turn out when `c1cc(-c2noc(CC3CCCCC3)n2)ccn1` was run?
A: Its Potency is inconclusive: 22.4 µM [inhibitor, partial curve].

Q: How did the Potency turn out when `COc1ccc(Cn2nnc(C(=O)Nc3ccc4c(c3)OCCO4)c2N)cc1Br` was run?
A: The Potency was inconclusive: 3.98 µM [inhibitor, full curve].

Q: For `CCC(CC)C(=O)Nc1nnc(S(=O)(=O)N2c3ccccc3CC2C)s1` (stereo unspecified), which Potency is on record?
A: The Potency was inconclusive: 35.5 µM [inhibitor, partial curve].

Q: For `CCOC(=O)C1=C(N)OC2=C(C(=O)CC(C)(C)C2)C1c1cc(CSc2nnnn2C)cs1` (stereo unspecified), which Potency is on record?
A: The Potency was inconclusive: 28.2 µM [inhibitor, partial curve].

Q: For `Cc1sc2nc(CSc3nc4ccccc4c(=O)n3CCCN3CCOCC3)[nH]c(=O)c2c1C`, which Potency is on record?
A: Its Potency is inconclusive: 7.08 µM [inhibitor, full curve, poor fit].

Q: `Cc1ccc2occ(CC(=O)Nc3ccc(Cl)c(C(F)(F)F)c3)c2c1` was tested. Which Potency did it give?
A: The Potency was inconclusive: 8.91 µM [inhibitor, partial curve].

Q: For `COc1ccc(C(=O)NC(Nc2ccccc2)C(Cl)(Cl)Cl)cc1` (stereo unspecified), which Potency is on record?
A: Its Potency is inconclusive: 14.1 µM [inhibitor, partial curve].

Q: How did the Potency turn out when `Cc1cccc(CS(=O)(=O)Cc2ccc(C(=O)NCCCN3CCCC3)o2)c1` was run?
A: Its Potency is inconclusive: 31.6 µM [inhibitor, single point].

Q: With `Cn1cc([N+](=O)[O-])c(C(=O)Nc2cnn(Cc3ccc(F)cc3)c2)n1` as the compound, how does the Potency read?
A: Its Potency is inconclusive: 15.8 µM [inhibitor, partial curve].

Q: `Cc1cccc(N(C(=O)CCC(=O)Nc2nccs2)C(C(=O)NC(C)(C)C)c2ccc(O)cc2)c1` (stereo unspecified) was tested. Which Potency did it give?
A: The Potency was inconclusive: 39.8 µM [inhibitor, single point].

Q: Which “activity change, negative = displacement” value does the source give for `CCc1ccc(-n2nc(CO)c(C(=O)NCc3cccnc3)n2)cc1` here?
A: Its value is inactive: -1.95%.

Q: Which Potency does the source give for `COc1ccc(/C=C2\CCC/C(=C\C=N\N(C)C)C2=O)cc1` here?
A: Its Potency is inconclusive: 31.6 µM [inhibitor, partial curve].

Q: `Cn1c(/C=N/Nc2nc3ccccc3[nH]2)nc2ccccc21` was tested. Which “activity change, negative = displacement” value did it give?
A: The value was inactive: 4.01%.

Q: With `O=C1[C@H]2[C@H](ON3CCCC[C@H]23)C(=O)N1c1ccc(Cl)cc1` as the compound, how does the Potency read?
A: Its Potency is inconclusive: 20 µM [inhibitor, partial curve].

Q: For `NCCCC[C@H](N)C(=O)N[C@@H](CCCN=C(N)N)C(=O)N1CCC[C@H]1C(=O)N1CCC[C@H]1C(=O)NCC(=O)N[C@@H](Cc1ccccc1)C(=O)N[C@@H](CO)C(=O)N1CCC[C@H]1C(=O)N[C@@H](Cc1ccccc1)C(=O)O`, which “activity change, negative = displacement” value is on record?
A: Its value is inactive: -4.29%.

Q: Which Potency does the source give for `CC(=O)c1ccc(C(=O)N(Cc2cccnc2)c2nc3c(C)c(C)ccc3s2)cc1` here?
A: The Potency was inconclusive: 39.8 µM [inhibitor, partial curve, poor fit].

Q: `COc1cc2oc(=O)cc(-c3ccc(-c4ccc(C)cc4)cc3)c2c(OC)c1OC` was tested. Which Potency did it give?
A: Its Potency is inconclusive: 15.8 µM [inhibitor, partial curve].

Q: With `O=C(COC(=O)[C@@H]1CC(O)CN1S(=O)(=O)c1ccccc1[N+](=O)[O-])Nc1ccc2ccccc2c1` (stereo partly specified) as the compound, how does the Potency read?
A: The Potency was inconclusive: 12.6 µM [inhibitor, partial curve].

Q: `COc1ccccc1N(C)S(=O)(=O)c1ccc(C(=O)Nc2ccc(N3CCOCC3)cc2)cc1` was tested. Which Potency did it give?
A: The Potency was inconclusive: 11.2 µM [inhibitor, partial curve].

Q: For `CCc1ccc(CN(C(=O)Nc2cccc(Cl)c2)c2ccccn2)cc1`, which “activity change, negative = displacement” value is on record?
A: Its value is inactive: 101%.

Q: How did the “activity change, negative = displacement” value turn out when `Oc1ccc(Br)cc1CNc1cnc2ccccc2c1` was run?
A: Its value is inactive: -11.4%.

Q: With `COc1ccc([N+](=O)[O-])cc1NC(=O)CCc1ccccc1` as the compound, how does the Potency read?
A: Its Potency is inconclusive: 35.5 µM [inhibitor, single point].

Q: Which “activity change, negative = displacement” value does the source give for `O=[N+]([O-])c1cc([N+](=O)[O-])c2nonc2c1Nc1ccc(O)cc1` here?
A: The value was inactive: -16.6%.

Q: With `Cc1ccc(N2CC(C(=O)Nc3nnc(SCCC4OCCO4)s3)CC2=O)cc1` (stereo unspecified) as the compound, how does the Potency read?
A: Its Potency is inconclusive: 35.5 µM [inhibitor, partial curve].

Q: `C/C(=N\N=C(N)N)c1ccc(Cl)c(Cl)c1` was tested. Which Potency did it give?
A: Its Potency is inconclusive: 20 µM [inhibitor, partial curve].

Q: How did the Potency turn out when `N#Cc1c(-n2cccc2/C=N/O)sc2c1CCCC2` was run?
A: The Potency was inconclusive: 35.5 µM [inhibitor, partial curve].

Reference: PubChem BioAssay AID485281 (National Center for Advancing Translational Sciences (NCATS), 2010)
